This is an account of results in the supplement of paper PMC11283458.

SMILES strings stand for the structures. Where a name gives a salt, the structure may show the parent alone. The list shows a part of the results. Most values come without repeats; read them as rough.

Experiment [1] relates to Mef2d microexon dual Nano/Firefly luciferase splicing reporter in Neuro-2a cells. Nature of the experiment: B-score of Firefly/Nano luminescence ratio, V1 Mef2d microexon reporter (B-score (plate-normalised)); higher = more Mef2d microexon inclusion. The settings on record: 24 h.
The test system is the same in experiment [2]. Nature of the experiment: B-score of Nano/Firefly luminescence ratio, V2 Mef2d microexon reporter (B-score (plate-normalised)); higher = more Mef2d microexon inclusion. The settings on record: 24 h.
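Throughout, for B-score of Nano/Firefly luminescence ratio, V2 Mef2d microexon reporter: compounds at 4 µM (PKI library 0.5 µM) on Dox-inducible N2A Flp-In cells with PEST-tagged luciferases, 384-well plates, B-score from per-plate median-polish residual over median absolute residual.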

`CC(=O)Nc1ccc(Nc2ncc(C(F)(F)F)cc2Cl)cc1` (4 µM): the B-score in experiment [1] is -4.87; in experiment [2], -9.52.

For `O=C(c1ccc(F)cc1)C1CCN(CCCCc2ccccc2)CC1` [4-(4-Fluorobenzoyl)-1-(4-phenylbutyl)-piperidine oxalate] (4 µM), the results for the B-score in experiment [1] and in experiment [2] were 21.2 and 7.37, respectively.

`Cc1onc(-c2c(Cl)cccc2Cl)c1C(=O)SCC(=O)Nc1ccc(F)cc1` (4 µM): the values for the B-score in experiment [1] and in experiment [2] were -3.03 and -3.88, respectively.

Turning to `COc1ccc(NC(=O)CSC(=O)c2c(-c3c(Cl)cccc3Cl)noc2C)cc1` (4 µM), the results for the B-score in experiment [1] and in experiment [2] were -6.93 and -8.29, respectively.

For `N#C/C(=C\Nc1cc(C(F)(F)F)cc(C(F)(F)F)c1)S(=O)(=O)c1ccccc1` (4 µM), the B-score was -4.05 in experiment [1] and -6.34 in experiment [2].

Consider `CC(C)(C)c1ccc(C(N)=NOC(=O)c2cnn(-c3ccc([N+](=O)[O-])cc3)c2C(F)(F)F)cc1` (4 µM), for which the values for the B-score in experiment [1] and in experiment [2] were 5.75 and 2.84, respectively.

Take `Cc1ccc(S(=O)(=O)N/N=C/c2cc(Cl)ccc2O)cc1` (4 µM): the B-score in experiment [1] turned out to be 28.7; in experiment [2] it was 57.4.

For the molecule `C[C@@H](Oc1cc(-c2cnn(C3CCNCC3)c2)cnc1N)c1c(Cl)ccc(F)c1Cl` (0.5 µM), the B-score is 6.44 in experiment [1] and 2 in experiment [2].

In the case of `CN(C)C=Cc1ccnc(-c2cc(C=CN(C)C)ccn2)c1` (4 µM), the figures for the B-score in experiment [1] and in experiment [2] were 10.1 and 5.19, respectively.

As to `O=C1Nc2ccc(Br)cc2C1=CC(=O)c1ccc(Br)cc1` (4 µM), the results for the B-score in experiment [1] and in experiment [2] were 3.54 and 7.65, respectively.

Regarding `O=C(NCCCn1ccc2ccccc21)c1n[nH]c2ccccc12` (4 µM), the B-score in experiment [1] was -3.43; in experiment [2], -5.62.

On to `Nc1ncn(C2OC(CO)C(O)C2O)c(=O)n1` (stereo unspecified) [Azacytidine-5] (4 µM), for which the B-score in experiment [1] was -4.2; in experiment [2], -10.9.

Take `C=CCSc1nnc(-c2ccc(C(C)(C)C)cc2)n1-c1ccc(Cl)cc1` (4 µM): the B-score was 5.4 in experiment [1] and 2.69 in experiment [2].
